Test results reported in PubChem BioAssay AID2060484 (Molecular Pharmacology Branch, DTP, NCI, 2025).
Some entries of the source have several records that differ or are many. Only these are listed. There may be further records. Values given together are repeats across runs, samples, wells, individuals or studies. Signs of the kind (2×) give the number of equal values in this list.

Test system: SUM149PT spheroids with HUVEC/MSC, viability
Assay: Anticancer human tumor SUM149PT cell line growth inhibition [GQUAD];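 further: spheroids exposed to drugs for seven days before readout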;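 on viability, T/C: percent viability relative to DMSO vehicle control taken as 100%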
Settings: for viability, T/C: stronger effect = lower value; for IC50: compound alone
From the text: DNA G-quadruplex Stabilizer Agents in Combinations in Complex Spheroids
A high-throughput screen of multi-cell type tumor spheroids was designed to identify active combinations of DNA G-quadruplex stabilizer agents and targeted small molecules. Complex spheroids include a stromal component modeled by human endothelial cells (HUVEC) and fibroblasts modeled by human mesenchymal stem cells (MSCs). The concentration ranges selected for each drug and investigational agent were based upon clinically achievable concentrations if the clinical Cmax of the agent was known.
Compounds. The drugs and investigational agents: pidnarulex (CX-5461; NSC782164), APTO-253 (NSC789042), BRACO-19 (NSC847499), peposertib (NSC802822), ceralasertib (NSC780249), elimusertib (NSC800525), camonsertib (NSC841442), AZD-1390 (NSC803789), olaparib (NSC753686), talazoparib (NSC767125), ART-558 (NSC835418), sotorasib (NSC818433), MRTX-1133 (NSC836407), SN-38 (NSC673596), topotecan (NSC609699), etoposide (NSC141540), doxorubicin (NSC123127), gemcitabine (NSC613327), 5-fluorouracil (NSC19893), paclitaxel (NSC125973), vemurafenib (NSC761431), panobinostat (NSC761190), R-306465 (JNJ-16241199; NSC773264), adavosertib (NSC754352), TP-3654 (NSC805149), carboplatin (NSC241240), KSQ-4279 (NSC840948), and staurosporine (NSC755774) were obtained from the National Cancer Institute (NCI) Developmental Therapeutics Program Chemical Repository (34). The FDA-approved anticancer drug set is available from the NCI Developmental Therapeutics Program. […] The stock solutions were prepared in dimethyl sulfoxide (DMSO, Sigma-Aldrich, St. Louis, MO, cat. D2650) at 800-fold the tested concentration and stored at -70 degrees C prior to their use. All drugs and investigational agents were tested over a range starting from a high concentration at or near the clinical Cmax and decreasing in half-log increments. If the clinical Cmax for an agent had not been determined, the highest concentration tested was 10 microM.
2.3 Cell Culture. All cells were maintained in an incubator at 37 degrees C and 5% CO2 with 95% humidity. The PDC lines were cultured according to standard operating procedures established by the NCI PDMR. All PDCs were thawed and cultured in Matrigel-coated flasks prepared with a working solution of 1X Ham's F-12 nutrient mix, without supplementation (Invitrogen, cat. 11765054), 100 U/mL penicillin-streptomycin (Invitrogen, cat. 15140122), and 2.5% Matrigel (Corning Inc., cat. 354248) for the first three passages. The 857933-349-R-J2-PDC line was cultured in 6C/Colon 1B media, which includes advanced DMEM/F-12 (Thermo Fisher Scientific, cat. 12634028), 10 mM HEPES (Thermo Fisher Scientific, cat. 15630080), 1X GlutaMAX supplement (Thermo Fisher Scientific, cat. 35050061), 0.1 mg/mL primocin (InvivoGen, cat. ant-pm-2), 10% defined fetal bovine serum, heat inactivated (HyClone Laboratories Inc., cat. SH30070.03HI), 50% L-WRN conditioned media (ATCC, cat. CRL-3276), 1.25 mM N-Acetyl-L-cysteine (Sigma-Aldrich, cat. A9165), 10 mM nicotinamide (Sigma-Aldrich, cat. N0636), 1X B-27 supplement (Thermo Fisher Scientific, cat. 17504044), 1X N-2 supplement (Thermo Fisher Scientific, cat. 17502048), 10 microM Y-27632 dihydrochloride (Tocris Bioscience, cat. 1254), and 50 ng/mL human EGF recombinant protein (Thermo Fisher Scientific, cat. PHG0311). […]

Cc1cnc(CNC(=O)c2c(=O)c3ccc(N4CCCN(C)CC4)nc3n3c2sc2ccccc23)cn1
viability, T/C (compound alone 10 µM): 0.15, 31.8, 0.26, 8.83, 31.1, 0.24, 1.36, 0.17, 28.8, 13.1, 0.28, 0.34%

Cc1[nH]c2ccc(F)cc2c1-c1nc2c3cccnc3c3ncccc3c2[nH]1
viability, T/C (compound alone 0.0316 µM): 103, 98.7, 99 (2×), 97, 84, 99.8, 94.4, 94.8, 97.4, 102, 110% | viability, T/C (compound alone 3.16 µM): 107, 101, 90.1, 80, 84.5, 102, 83.7, 88.3, 99.4, 98, 95.8, 91.6%

CCc1c2c(nc3ccc(O)cc13)-c1cc3c(c(=O)n1C2)COC(=O)[C@]3(O)CC
IC50: 1.68 nM, 2.76 nM, 17.9 nM

C#Cc1c(F)ccc2cc(O)cc(-c3ncc4c(N5CC6CCC(C5)N6)nc(OCC56CCCN5CC(F)C6)nc4c3F)c12 (stereo not given)
IC50: 576 nM, 7.72 µM, 4.36 µM
